Results reported in article PMC12136788.
Changes are numbered by the printed parent chain. The list shows a part of the results.

B1: chr10:33214929:33214930:-_ENSG00000150093_ENST00000302278|hu_hu|hu_hu_hu_mus_True|88_88 (ssRNA)
RNA: GGGAGUUCUACAGUCCGACGAUCAACAAGUUCAUUGAAAAACUCUCCUUUAUUAGUAAGACUAAGCACAUUUUUGUAGCUAAAUGGGCUGGUGCAGUUUUGUUCACUUGUACAAGGAUUUCUUAGCUUUGCUGGGGUUGUGCUCAACAGAGGAUUGAGCAUCA
B2: chr11:46405157:46405158:+_ENSG00000110492_ENST00000395566|hu_hu|hu_hu_hu_mus_False|18_98 (ssRNA)
RNA: GGGAGUUCUACAGUCCGACGAUCCCCUCCCCACUUUGGCUGGGGAGUGUGGGCGUGAGAGGACAGGCGUGAUUGACAGAGCUGACAGGAAGACAAAAGGCACUGGUGGGUUAUAUCUCGGGCCUGGGGGAGAGGAGGGCUCCGCAACAGAGGAUUGAGCAUCA
B3: chr10:33214929:33214930:-_ENSG00000150093_ENST00000302278|hu_hu|hu_hu_hu_mus_True|18_18 (ssRNA)
RNA: B1 RNA with U49C, A51G, U53C, A117G, U120C, U123G
B4: chr11:86533019:86533020:-_ENSMUSG00000047126_ENSMUST00000103186|perfect_dup|motif|central (ssRNA)
RNA: GGGAGUUCUACAGUCCGACGAUCAAGAAGAUGGGUGUGAACCACUGCACGUUUUAUAUCAUAUAAAUCAGUGAAAUGUUCGGAUGCACGCUGCAGUAGGCCAGCCUUUUCACACAGUUGAGCAAUAUGAGCCCGGUCAUAAUGCAACAGAGGAUUGAGCAUCA
B5: chrX:130621085:130621086:+_ENSMUSG00000031256_ENSMUST00000033609|mus_mus|motif|central (ssRNA)
RNA: GGGAGUUCUACAGUCCGACGAUCGUAAUAUCUUAAGUAUAUUAACUGUAAUCAAAUUUGUACUAUAGUUAGAAGCCAACGGUAUUGUCACUUUGUAUUGUUUGGAAUAACUGGAAAGGCCUGACGUACAUCAUGAGAUAAUUGCAACAGAGGAUUGAGCAUCA
B6: 57704371_57704491_741_3pUTR_ENSMUSG00000037788_ENSMUST00000114297|mouse|control|control (ssRNA)
RNA: GGGAGUUCUACAGUCCGACGAUCAGAAUAUCCAAGUUUUCCCUUGGACCACCCUAUCAGCAAGUAUCGGUGAGGAUGGGAAGGUAAACAAAAGGGCCUGUCCAUCCUCUUUGCCUUUGAUGUAGCAUCUUGCUACUUGUCCUUCAACAGAGGAUUGAGCAUCA
B7: 88651302_88651422_826_CDS_ENSG00000135052_ENST00000388712|human|control|control (ssRNA)
RNA: GGGAGUUCUACAGUCCGACGAUCACUGGGGGCUGGUGUCUGGGACUUGCUGUUACCAAGCACGUUUCCCUUCCCUUGUGGCACCUCUGUGUGUGGCAGGCCUGCUGCCUGCAGCCUGGGCUGAGGCUCACUGAGGGCUUGGAGCAACAGAGGAUUGAGCAUCA
B8: chr1:153210542:153210543:+_ENSMUSG00000023150_ENSMUST00000023918|mus_mus|motif|central (ssRNA)
RNA: GGGAGUUCUACAGUCCGACGAUCUUGCAGUUAGCAACAUCUACCCCACCCACCCUCCUUAUUCACAAGUGUACCUCGGCGGAACACAAUUACAUCACUAAGCCUGUUAGUUUGGGGUUCUUAAAUUUGUUAAAACUGGAAAAUCAACAGAGGAUUGAGCAUCA
B9: chr1:135975629:135975630:-_ENSMUSG00000020423_ENSMUST00000020692|mus_hu|FALSE|FALSE (ssRNA)
RNA: GGGAGUUCUACAGUCCGACGAUCGAAGCCCACGGCGGCGGCGAUCUCCGGGAGCAUGUCGGUUCCCUUCCCGUGGCUCAUGUCGCGCGCGGCUCGGGCUCAGUGAGAGGUCUCGGGUGGGAAGUGCGGGUCCACAAGACAGCGCAACAGAGGAUUGAGCAUCA
B10: chr3:31678068:31678069:+_ENSG00000163527_ENST00000295770|hu_hu|FALSE|FALSE (ssRNA)
RNA: GGGAGUUCUACAGUCCGACGAUCUUUGCAUUAGAGAAACAUGAAAAUAAAUAUAAUUCAAGGAAGUAUAAUGAUUCUUCUAAUAUGUCUUUCUCAGACCUGUACUAGUUUACCGGUUCAAGAAGCUCUCAUCACAUUUUGUCACAACAGAGGAUUGAGCAUCA
B11: 69817489_69835357_1531_3pUTR_ENSMUSG00000053477_ENSMUST00000078486|mouse|control|control (ssRNA)
RNA: GGGAGUUCUACAGUCCGACGAUCCCAACCAUGAGCGAGUGUCUGUUGGCUGAGAGAAGACUAGUUCCGUACCCUGAGCCCAGGCUACCCAUCGCUCCGUUGUGGGAGGGUCCCAUGAUCCCAUGCAUGUCCCCAUGGCCACCACAACAGAGGAUUGAGCAUCA
B12: chr2:85770095:85770096:+_ENSG00000168906_ENST00000306434|hu_hu|FALSE|FALSE (ssRNA)
RNA: GGGAGUUCUACAGUCCGACGAUCAUCCAGAUCCCUGACAAUGACCCCAGGGCGGAGAUCGAAAUUCUUCUUCACAAUCUCUAAUAGCUCUCUCUCACUCUUCUGAGAGGUACCAUAAUGGAAAAUGGAGAUAGAUAAUGGAUGCAACAGAGGAUUGAGCAUCA
B13: 112746645_112746765_1893_CDS_ENSMUSG00000046441_ENSMUST00000056972|mouse|control|control (ssRNA)
RNA: GGGAGUUCUACAGUCCGACGAUCCUCCACAAGCUGGAUUUCCAGUGGCGCGGGCAUCUGGAGAUCACAGACGGCCGGUGAGCCCACCAGCAGGCACUUGACUGGGCCGCUGGGUUCCGCACCCUGUUCGUCCGGAAGGCACUUCAACAGAGGAUUGAGCAUCA
B14: chr11:22897662:22897663:+_ENSMUSG00000007739_ENSMUST00000173867|mus_hu|FALSE|FALSE (ssRNA)
RNA: GGGAGUUCUACAGUCCGACGAUCGCAAAACUGAAUAAGCCCAAUCUUGGCCUUUUCAACUCUGGUUAUGCCAGAAUUUGACACUUUUUGGGUGAGAACCAGCCCUUCCACCAACUCACAGUCAUCAAUUGUCCCACCAAGCUUCAACAGAGGAUUGAGCAUCA
B15: 100944380_100944500_254_CDS_ENSMUSG00000001755_ENSMUST00000001806|mouse|control|control (ssRNA)
RNA: GGGAGUUCUACAGUCCGACGAUCCUGCACAGGGCUGGCCUGAGGCUGAGCGGGUCCCCCCAGGUUCAUGCCCGGCUGCAGGUGCACAUAGAGGGUGUGAUUCACCAGGCGGGACGCCGAGGUCAGGAUGGGAGGCAGGCGUGCCAACAGAGGAUUGAGCAUCA
B16: 67946858_67948415_764_3pUTR_ENSMUSG00000079614_ENSMUST00000025421|mouse|control|control (ssRNA)
RNA: GGGAGUUCUACAGUCCGACGAUCAUUUGGAGCAAACGCGAUAUCAUGGACGGGGUCUGUGACUGUCAUAAGAGUCUCAGCUUUCGCAUAUUUCCUGGUAUUUUCAUUGUAUUCAAAAAUCUGAACCUUGGCCAUUGAAUUUGGCAACAGAGGAUUGAGCAUCA
B17: chr19:54062153:54062154:+_ENSMUSG00000024976_ENSMUST00000025932|mus_hu|FALSE|FALSE (ssRNA)
RNA: GGGAGUUCUACAGUCCGACGAUCUUGGCUGAUGGUACUUUGGGAUCUUUUUCUUUAGAGUCUUUUUCUUUUCCUAAACUACUACUCAUGGUGACUCAAGCCUGGACAAAAACUACAUGAACUCCUUUUAUUUUCCAGUAAUUGCAACAGAGGAUUGAGCAUCA
B18: chr12:42180722:42180723:-_ENSMUSG00000036295_ENSMUST00000043884|mus_hu|mus_mus_mus_hu_True|48_48 (ssRNA)
RNA: GGGAGUUCUACAGUCCGACGAUCCUGUAGGAGAAGAAUCUGUGUGUUAGCUGGCAAUCUGGCUGGGAAAGUUAAAAGACCUAAAUCAUUACAGUCCACUGUAGAUGCUUCCAUAUAAAUGGAUCUGGGUGUAAACCAAGGCCUCAACAGAGGAUUGAGCAUCA
B19: chr3:33945423:33945424:+_ENSMUSG00000027680_ENSMUST00000167354|mus_mus|motif|central (ssRNA)
RNA: GGGAGUUCUACAGUCCGACGAUCGGUAUUUUUUUUGACAGUUUUAUUUUGAUUGACAGGCCGAAGUCGUUCAAAUGUGACGGUUUCAUUGUAAGUGGCAUCACAAGCAGCAUAUUCAAUGACAUAAAACUCGCCUUUCAUCAUCAACAGAGGAUUGAGCAUCA
B20: chr6:42629286:42629287:-_ENSMUSG00000036667_ENSMUST00000045054|mus_hu|motif|central (ssRNA)
RNA: GGGAGUUCUACAGUCCGACGAUCGAAUAAUACCUUAUGGCCAGUCACAACCACCCGGCCCCGGCCAUAGCGGGCAGCCGCGGUAACACAGCCAUGGUAGGAAUCUAACCCUAGAGGAAAGGCUAAAGCCCCAUGCACUAGCAGCAACAGAGGAUUGAGCAUCA
B21: 148344039_148344431_7884_CDS_ENSMUSG00000025261_ENSMUST00000112622|mouse|control|control (ssRNA)
RNA: GGGAGUUCUACAGUCCGACGAUCUAGAGCUGUUGGGAUGCUGGACAGGGUUCCUGCUUGGCUAGUGGCUGUACUCUGGUCAUGAAAAAAGUCAUCCAGCAGCUCGUCAUCAGACCUGGCGAUGAUAUGGACGUCAUCAUUGCCCAACAGAGGAUUGAGCAUCA
B22: 36995896_37000584_3822_CDS_ENSG00000164190_ENST00000448238|human|control|control (ssRNA)
RNA: GGGAGUUCUACAGUCCGACGAUCUCUUCCUUCAUGAGAGUGGCCACUUCUCCUAUGAUCCCCAGAGCUUCUUCUGUCACGCUCUUCAUAUUCCCAAGCUUUAUCAUCAUCUUUUUUAUGUCGUUUCCUAGAGGAUUCAAAAGCCAACAGAGGAUUGAGCAUCA

target: T1, UNK ZnF1-3 (human, UniProt Q9C0B0 31-174); experiment: nsRBNS (natural sequence RNA bind-n-seq); RBNS binding buffer (assumed for nsRBNS): 25 mM Tris pH 7.5, 150 mM KCl, 3 mM MgCl2, 0.01% Triton X-100, 500 ug/ml BSA, 20 U/ml SUPERase-In, 4 C; UNK is unkempt and MSI1 is Musashi-1; names of the RNAs are library labels; protein concentration not given here; high values mean tight binding
T1 sequence: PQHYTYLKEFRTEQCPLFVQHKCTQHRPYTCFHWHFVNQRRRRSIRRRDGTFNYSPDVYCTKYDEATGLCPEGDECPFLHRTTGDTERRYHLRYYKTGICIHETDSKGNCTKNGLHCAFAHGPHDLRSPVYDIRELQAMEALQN

Binder	binding signal [enrichment R]
B1	0.64
B2	2.82
B3	0.947
B4	1.24
B5	0.932
B6	0.529
B7	0.43
B8	1.67
B9	1.14
B10	0.854
B11	0.794
B12	0.89
B13	0.788
B14	0.874
B15	2.13
B16	1.27
B17	0.711
B18	1.24
B19	0.971
B20	1.43
B21	0.712
B22	0.763
